# Experimental data reported in the supplement of paper PMC8728848.
# This is one part of the list.
# B1: CGL (Crenomytilus grayanus), H2FH31 (protein)
# chain: MTTFLIKHKASGKFLHPYGGSSNPANNTKLVLHSDIHERMYFQFDVVDERWGYIKHVASGKIVHPYGGQANPPNETNMVLHQDRHDRALFAMDFFNDNIMHKGGKYIHPKGGSPNPPNNTETVIHGDKHAAMEFIFVSPKNKDKRVLVYA
# Experiments:
# Assay in all cases: glycan array binding signal (z-score within array); higher = stronger binding
# Conditions in all cases: glycan notation: IUPAC condensed, linker removed
# Neu5Ac(a2-3)GalNAc = molecular target: Neu5Ac(a2-3)GalNAc
# Procedure, shortened: (§1)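 Columns mapping to the same glycan were averaged after glycan names were converted to IUPAC-condensed notation. The data come from 3228 arrays in the Consortium for Functional Glycomics database, limited to those with an available protein sequence. Binding is reported as a within-array Z-score averaged across arrays of one protein sequence and across linkers.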
# [1] = molecular target: Neu5Ac(a2-3)GalNAc(b1-4)GlcNAc
# Procedure, shortened: as §1
# [2] = molecular target: Neu5Ac(a2-3)[GalNAc(b1-4)]Gal(b1-4)Glc
# Procedure, shortened: as §1
# [3] = molecular target: Neu5Ac(a2-3)[GalNAc(b1-4)]Gal(b1-4)GlcNAc
# Procedure, shortened: as §1
# [4] = molecular target: Neu5Ac(a2-3)[GalNAc(b1-4)]Gal(b1-4)GlcNAc(b1-3)GalNAc
# Procedure, shortened: as §1
# [5] = molecular target: Neu5Ac(a2-3)[Neu5Ac(a2-6)]GalNAc
# Procedure, shortened: as §1
# Neu5Ac(a2-6)Gal = molecular target: Neu5Ac(a2-6)Gal
# Procedure, shortened: as §1
# [6] = molecular target: Neu5Ac(a2-6)Gal(b1-3)GlcNAc(b1-3)[Gal(b1-4)GlcNAc(b1-6)]Gal(b1-4)Glc
# Procedure, shortened: as §1
# Neu5Ac(a2-6)Gal(b1-4)Glc = molecular target: Neu5Ac(a2-6)Gal(b1-4)Glc
# Procedure, shortened: as §1
# [7] = molecular target: Neu5Ac(a2-6)Gal(b1-4)GlcNAc
# Procedure, shortened: as §1
# [8] = molecular target: Neu5Ac(a2-6)Gal(b1-4)GlcNAc(b1-2)Man
# Procedure, shortened: as §1
# [9] = molecular target: Neu5Ac(a2-6)Gal(b1-4)GlcNAc(b1-2)Man(a1-3)Man(b1-4)GlcNAc(b1-4)GlcNAc
# Procedure, shortened: as §1
# [10] = molecular target: Neu5Ac(a2-6)Gal(b1-4)GlcNAc(b1-2)Man(a1-3)[Gal(b1-4)GlcNAc(b1-2)Man(a1-6)]Man(b1-4)GlcNAc(b1-4)GlcNAc
# Procedure, shortened: as §1
# [11] = molecular target: Neu5Ac(a2-6)Gal(b1-4)GlcNAc(b1-2)Man(a1-3)[GlcNAc(b1-2)Man(a1-6)]Man(b1-4)GlcNAc(b1-4)GlcNAc
# Procedure, shortened: as §1
# [12] = molecular target: Neu5Ac(a2-6)Gal(b1-4)GlcNAc(b1-2)Man(a1-3)[GlcNAc(b1-4)][Neu5Ac(a2-6)Gal(b1-4)GlcNAc(b1-2)Man(a1-6)]Man(b1-4)GlcNAc(b1-4)GlcNAc
# Procedure, shortened: as §1
# [13] = molecular target: Neu5Ac(a2-6)Gal(b1-4)GlcNAc(b1-2)Man(a1-3)[Man(a1-6)]Man(b1-4)GlcNAc(b1-4)GlcNAc
# Procedure, shortened: as §1
# [14] = molecular target: Neu5Ac(a2-6)Gal(b1-4)GlcNAc(b1-2)Man(a1-3)[Neu5Ac(a2-3)Gal(b1-4)GlcNAc(b1-2)Man(a1-6)]Man(b1-4)GlcNAc(b1-4)GlcNAc
# Procedure, shortened: as §1
# [15] = molecular target: Neu5Ac(a2-6)Gal(b1-4)GlcNAc(b1-2)Man(a1-3)[Neu5Ac(a2-6)Gal(b1-4)GlcNAc(b1-2)Man(a1-6)]Man(b1-4)GlcNAc(b1-4)GlcNAc
# Procedure, shortened: as §1
# [16] = molecular target: Neu5Ac(a2-6)Gal(b1-4)GlcNAc(b1-2)Man(a1-3)[Neu5Ac(a2-6)Gal(b1-4)GlcNAc(b1-2)Man(a1-6)]Man(b1-4)GlcNAc(b1-4)[Fuc(a1-6)]GlcNAc
# Procedure, shortened: as §1
# [17] = molecular target: Neu5Ac(a2-6)Gal(b1-4)GlcNAc(b1-2)Man(a1-6)Man(b1-4)GlcNAc(b1-4)GlcNAc
# Procedure, shortened: as §1
# [18] = molecular target: Neu5Ac(a2-6)Gal(b1-4)GlcNAc(b1-2)Man(a1-6)[Gal(b1-4)GlcNAc(b1-2)Man(a1-3)]Man(b1-4)GlcNAc(b1-4)GlcNAc
# Procedure, shortened: as §1
# [19] = molecular target: Neu5Ac(a2-6)Gal(b1-4)GlcNAc(b1-2)Man(a1-6)[GlcNAc(b1-2)Man(a1-3)]Man(b1-4)GlcNAc(b1-4)GlcNAc
# Procedure, shortened: as §1
# [20] = molecular target: Neu5Ac(a2-6)Gal(b1-4)GlcNAc(b1-2)Man(a1-6)[Man(a1-3)]Man(b1-4)GlcNAc(b1-4)GlcNAc
# Procedure, shortened: as §1
# [21] = molecular target: Neu5Ac(a2-6)Gal(b1-4)GlcNAc(b1-2)[Neu5Ac(a2-6)Gal(b1-4)GlcNAc(b1-4)]Man(a1-3)[GlcNAc(b1-4)][Neu5Ac(a2-6)Gal(b1-4)GlcNAc(b1-2)[Neu5Ac(a2-6)Gal(b1-4)GlcNAc(b1-6)]Man(a1-6)]Man(b1-4)GlcNAc(b1-4)GlcNAc
# Procedure, shortened: as §1
# [22] = molecular target: Neu5Ac(a2-6)Gal(b1-4)GlcNAc(b1-2)[Neu5Ac(a2-6)Gal(b1-4)GlcNAc(b1-4)]Man(a1-3)[GlcNAc(b1-4)][Neu5Ac(a2-6)Gal(b1-4)GlcNAc(b1-4)Man(a1-6)]Man(b1-4)GlcNAc(b1-4)GlcNAc
# Procedure, shortened: as §1
# [23] = molecular target: Neu5Ac(a2-6)Gal(b1-4)GlcNAc(b1-2)[Neu5Ac(a2-6)Gal(b1-4)GlcNAc(b1-6)]Man(a1-6)[Neu5Ac(a2-6)Gal(b1-4)GlcNAc(b1-2)Man(a1-3)][GlcNAc(b1-4)]Man(b1-4)GlcNAc(b1-4)GlcNAc
# Procedure, shortened: as §1
# [24] = molecular target: Neu5Ac(a2-6)Gal(b1-4)GlcNAc(b1-3)Gal(b1-3)GlcNAc
# Procedure, shortened: as §1
# [25] = molecular target: Neu5Ac(a2-6)Gal(b1-4)GlcNAc(b1-3)Gal(b1-4)GlcNAc
# Procedure, shortened: as §1
# [26] = molecular target: Neu5Ac(a2-6)Gal(b1-4)GlcNAc(b1-3)Gal(b1-4)GlcNAc(b1-2)Man(a1-3)[Neu5Ac(a2-6)Gal(b1-4)GlcNAc(b1-3)Gal(b1-4)GlcNAc(b1-2)Man(a1-6)]GalNAc
# Procedure, shortened: as §1
# [27] = molecular target: Neu5Ac(a2-6)Gal(b1-4)GlcNAc(b1-3)Gal(b1-4)GlcNAc(b1-3)Gal(b1-4)GlcNAc
# Procedure, shortened: as §1
# [28] = molecular target: Neu5Ac(a2-6)Gal(b1-4)GlcNAc(b1-3)Gal(b1-4)GlcNAc(b1-3)Gal(b1-4)GlcNAc(b1-2)Man(a1-3)[Neu5Ac(a2-6)Gal(b1-4)GlcNAc(b1-3)Gal(b1-4)GlcNAc(b1-3)Gal(b1-4)GlcNAc(b1-2)Man(a1-6)]GalNAc
# Procedure, shortened: as §1
# [29] = molecular target: Neu5Ac(a2-6)Gal(b1-4)GlcNAc(b1-3)Gal(b1-4)GlcNAc(b1-3)GalNAc
# Procedure, shortened: as §1
# [30] = molecular target: Neu5Ac(a2-6)Gal(b1-4)GlcNAc(b1-3)Gal(b1-4)GlcNAc(b1-3)[Neu5Ac(a2-6)Gal(b1-4)GlcNAc(b1-3)Gal(b1-4)GlcNAc(b1-6)]GalNAc
# Procedure, shortened: as §1
# [31] = molecular target: Neu5Ac(a2-6)Gal(b1-4)GlcNAc(b1-3)Gal(b1-4)GlcNAc(b1-6)[Gal(b1-3)]GalNAc
# Procedure, shortened: as §1
# [32] = molecular target: Neu5Ac(a2-6)Gal(b1-4)GlcNAc(b1-3)Gal(b1-4)[Fuc(a1-3)]GlcNAc(b1-3)Gal(b1-4)[Fuc(a1-3)]GlcNAc
# Procedure, shortened: as §1
# [33] = molecular target: Neu5Ac(a2-6)Gal(b1-4)GlcNAc(b1-3)GalNAc
# Procedure, shortened: as §1
# [34] = molecular target: Neu5Ac(a2-6)Gal(b1-4)GlcNAc(b1-3)[Neu5Ac(a2-6)Gal(b1-4)GlcNAc(b1-6)]GalNAc
# Procedure, shortened: as §1
# [35] = molecular target: Neu5Ac(a2-6)Gal(b1-4)GlcNAc(b1-6)GalNAc
# Procedure, shortened: as §1
binder,measurement,setting,value
B1,glycan array binding signal (z-score),Neu5Ac(a2-3)GalNAc,-0.335
same,glycan array binding signal (z-score),[1],-0.345
same,glycan array binding signal (z-score),[2],-0.429
same,glycan array binding signal (z-score),[3],-0.361
same,glycan array binding signal (z-score),[4],-0.239
same,glycan array binding signal (z-score),[5],-0.341
same,glycan array binding signal (z-score),Neu5Ac(a2-6)Gal,-0.346
same,glycan array binding signal (z-score),[6],-0.329
same,glycan array binding signal (z-score),Neu5Ac(a2-6)Gal(b1-4)Glc,-0.342
same,glycan array binding signal (z-score),[7],-0.341
same,glycan array binding signal (z-score),[8],-0.404
same,glycan array binding signal (z-score),[9],-0.331
same,glycan array binding signal (z-score),[10],-0.221
same,glycan array binding signal (z-score),[11],-0.374
same,glycan array binding signal (z-score),[12],-0.362
same,glycan array binding signal (z-score),[13],-0.308
same,glycan array binding signal (z-score),[14],-0.337
same,glycan array binding signal (z-score),[15],-0.356
same,glycan array binding signal (z-score),[16],-0.292
same,glycan array binding signal (z-score),[17],-0.255
same,glycan array binding signal (z-score),[18],-0.162
same,glycan array binding signal (z-score),[19],-0.27
same,glycan array binding signal (z-score),[20],-0.418
same,glycan array binding signal (z-score),[21],-0.455
same,glycan array binding signal (z-score),[22],-0.347
same,glycan array binding signal (z-score),[23],-0.332
same,glycan array binding signal (z-score),[24],-0.399
same,glycan array binding signal (z-score),[25],-0.281
same,glycan array binding signal (z-score),[26],-0.229
same,glycan array binding signal (z-score),[27],-0.315
same,glycan array binding signal (z-score),[28],-0.204
same,glycan array binding signal (z-score),[29],-0.355
same,glycan array binding signal (z-score),[30],-0.298
same,glycan array binding signal (z-score),[31],-0.308
same,glycan array binding signal (z-score),[32],-0.337
same,glycan array binding signal (z-score),[33],-0.363
same,glycan array binding signal (z-score),[34],-0.279
same,glycan array binding signal (z-score),[35],-0.338
